The source of these data is PubChem BioAssay AID1745853 (National Center for Advancing Translational Sciences (NCATS), 2022).

Where “and” joins values, the source holds several entries; their conditions need not be identical. Equal entries are not always repeated. Some of the results follow. These are further read-outs of the screen, such as a control signal, another cell line or another target. No call is given for them.

Common to all, as to test: Primary Screen for Target Class Profiling of Small Molecule Inhibitors of Methyltransferases
Assay [1] has as its target Glycine N-methyltransferase (Homo sapiens) (UniProt Q14749). The following applies: purified enzyme, MTase-Glo SAH luminescence; measured here: GNMT inhibition; at 40 µM; stronger effect = lower value. An outline of the steps: (§1)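 Each enzyme was assayed with SAM and its substrate. SAH formation detected by MTase-Glo luminescence; single-point 40 uM screen[…].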

For assay [2], the target named is Guanidinoacetate N-methyltransferase (Homo sapiens) (UniProt Q14353). To be noted: purified enzyme, MTase-Glo SAH luminescence; measured here: GAMT inhibition; at 40 µM; stronger effect = lower value. The procedure, abridged:
as §1

Assay [3] deals with Histamine N-methyltransferase (Homo sapiens) (UniProt P50135). The following applies: purified enzyme, MTase-Glo SAH luminescence; measured here: HNMT inhibition; at 40 µM; stronger effect = lower value. The procedure, abridged: as §1
The target in assay [4] is Nicotinamide N-methyltransferase (Homo sapiens) (UniProt P40261). The following applies: purified enzyme, MTase-Glo SAH luminescence; measured here: NNMT inhibition; at 40 µM; stronger effect = lower value. The procedure, abridged:
as §1

Assay [5] concerns the target Phenylethanolamine N-methyltransferase (Homo sapiens) (UniProt P11086). To be noted: purified enzyme, MTase-Glo SAH luminescence; measured here: PNMT inhibition; at 40 µM; stronger effect = lower value. The procedure, abridged: as §1
On the % scale 0 is the no-effect control and ±100 the full control effect.

For the molecule `COc1cccc(CN2C(=O)c3nc4ccccc4n3CC2(C)C(=O)NC2CCCC2)c1OC` (stereo not drawn), the activity change, negative = inhibition in assay [1] was -0.619%; in assay [2], 2.87%; in assay [3] it was -1.4%; in assay [4], -0.095%; in assay [5], -4.8%.
For the molecule `Cc1ccc(C)c(C(=O)Cn2nc3n(CC(C)C)c(=O)c4ccc(C(=O)NC5CCCC5)cc4n3c2=O)c1`, the activity change, negative = inhibition in assay [1] is 2.75%; in assay [2], 0%; in assay [3] it was 10%; in assay [4] it was 1.45%; in assay [5], 5.05%.
As for `Cc1ccc(Cn2c(=O)c3ccccc3n3c(=O)n(CC(=O)c4cc(C)ccc4C)nc23)cc1`, the activity change, negative = inhibition in assay [1] was 2.77%; in assay [2], 5.7%; in assay [3] it was 4.34%; in assay [4], -4.26%; in assay [5], 0.729%.
For `CSc1ccc(C(=O)N[C@@H]2CCCC[C@@H]2NC(=O)CNC(=O)c2cc(C(F)(F)F)ccc2NC(=O)NC(C)C)cc1`, in that order: -5.91%, -6.53%, 3.92%, -32.8% and -6.99%.
As for `Cc1ccc(-c2cn3c(n2)N(S(C)(=O)=O)CCC3)cc1`, the activity change, negative = inhibition in assay [1] is -5.38%; in assay [2], -6.65%; in assay [3], -18.2%; in assay [4], -8.76%; in assay [5], -1.65%.
For `Cc1nc2c3ccccc3n(CC(=O)N3CCN(c4ccccc4F)CC3)c(=O)n2n1`, in that order: -6.66%, 0%, -9.68%, -10.9% and -10.8%.
For `CC(C)NC(=O)c1ccc2c(=O)n(C(C)C)c3nn(CC(=O)NC(C)(C)C)c(=O)n3c2c1`, in that order: 7.55%, 0.932%, 6.53%, 1.66% and 5.78%.
For the molecule `CC(C)C(CO)Nc1nc(Nc2ccc(C(=O)O)c(Cl)c2)c2ncn(C(C)C)c2n1` (stereo not drawn), the activity change, negative = inhibition in assay [1] was -7.79%; in assay [2] it was -19.3%; in assay [3], -12.1%; in assay [4], -30.2%; in assay [5], -17%.
Turning to `O=C(CCn1ccc2cc(S(=O)(=O)N3CCCC3)ccc21)NCc1ccc(Cl)cc1`, the activity change, negative = inhibition in assay [1] was 0.037%; in assay [2], 3.53%; in assay [3] it was 3.8%; in assay [4], -5.49%; in assay [5] it was 0.128%.
For `COc1ccccc1CCNC(=O)c1cc2n(n1)CC(C)(C(=O)NCc1ccccc1)N(C)C2=O` (stereo not drawn), in that order: 5.34%, 0%, 5.48%, 7.28% and 4.36%.
The like results for `CCCn1c(=O)c2ccc(C(=O)NC(C)C)cc2n2c(SCC(=O)NCc3ccc(C)cc3)nnc12` were, in that order, -3.62%, 0%, 2.3%, -7.76% and -6.35%.
For the molecule `CC(=O)N[C@@H](CC(=O)O)C(=O)N[C@@H](CCC(=O)O)C(=O)N[C@H](C(=O)N[C@@H](CC(=O)O)C(=O)Nc1ccc2c(C)cc(=O)oc2c1)C(C)C`, the activity change, negative = inhibition is -3.51% in assay [1]; -12% in assay [2]; -3.26% in assay [3]; -44.8% in assay [4]; -29.7% in assay [5].
In the case of `CCC(C)NC(=O)Cn1nc2n(C(C)C)c(=O)c3ccc(C(=O)NCC(C)C)cc3n2c1=O` (stereo not drawn), the activity change, negative = inhibition in assay [1] was 2.81%; in assay [2], 0.231%; in assay [3] it was 6.27%; in assay [4] it was 4.33%; in assay [5], 4.3%.
For the molecule `Cc1cncc2cccc(S(=O)(=O)N3CCCNC[C@@H]3C)c12`, the activity change, negative = inhibition in assay [2] was -5.75%; in assay [4], -17.9%; in assay [5], -2.48%.
For the molecule `COc1cc(C[C@H]2COC(=O)[C@@H]2Cc2ccc(O)c(OC)c2)ccc1O`, the activity change, negative = inhibition in assay [1] was -5.5%; in assay [2] it was 4.47%; in assay [3], 9.64%; in assay [4] it was -10.9%; in assay [5], 2.1%.
For `COc1ccc(CN2C(=O)c3nc4ccccc4n3CC2(C)C(=O)NCCC(C)C)cc1` (stereo not drawn), in that order: -2.11%, -3.86%, 6.58%, 8.15% and 3.94%.
As for `CCCOc1ccc(CN2C(=O)c3cc4occc4n3CC2(C)C(=O)NC2CCCCC2C)cc1` (stereo not drawn), the activity change, negative = inhibition in assay [1] is -8.71%; in assay [2] it was 4.83%; in assay [3], -7.53%; in assay [4], -8.37%; in assay [5], -6.55%.
The like results for `CCCN1C(=O)c2c(C(=O)NCc3cccc(OC)c3)ncn2CC1(C)C(=O)NC1CCCC1` (stereo not drawn) were, in that order, 1.87%, 1.86%, 4.61%, 4.11% and 9.1%.
For the molecule `CC1(C(=O)NCc2ccccc2)Cn2nc(-c3ccccc3)cc2C(=O)N1Cc1ccco1` (stereo not drawn), the activity change, negative = inhibition in assay [1] is -3.78%; in assay [2], 4.83%; in assay [3], 0.497%; in assay [4], 1.03%; in assay [5], 0.512%.
Take `COC(=O)c1cc2n(n1)CC(C)(C(=O)NC1CCC(C)CC1)N(c1cc(Cl)ccc1C)C2=O` (stereo not drawn): the activity change, negative = inhibition in assay [1] is 8.9%; in assay [2] it was 5.86%; in assay [3], -3.04%; in assay [4], 5.85%; in assay [5], 6.79%.
The like results for `COc1ccccc1C1(CC(=O)O)CCOC(C)(C)C1` (stereo not drawn) were, in that order, 1.07%, 0.173%, 5.18%, 13.7% and 1.24%.
Consider `CCOC(=O)c1cc2n(n1)CC(C)(C(=O)NCc1ccc(F)cc1)N(c1cc(C)cc(C)c1)C2=O` (stereo not drawn), for which the activity change, negative = inhibition is 2.2% in assay [1]; 4.1% in assay [2]; -1.24% in assay [3]; -6.69% in assay [4]; -2.37% in assay [5].
Take `CCCN1C(=O)c2c(C(=O)NCCC(C)C)ncn2CC1(C)C(=O)NCCC(C)C` (stereo not drawn): the activity change, negative = inhibition in assay [1] is -1.84%; in assay [2], 2%; in assay [3] it was 4.92%; in assay [4], -1.74%; in assay [5] it was 8.65%.
The like results for `CCCCNC(=O)c1cc2n(n1)CC(C)(C(=O)NCc1ccccc1)N(C)C2=O` (stereo not drawn) were, in that order, -0.94%, -0.237%, 5.34%, 0.921% and -0.177%.
For `OC[C@H]1O[C@@H](O[C@H]2[C@H](OCc3ccccc3)O[C@H](CO[C@@H]3OC[C@@H](O)[C@H](O)[C@H]3O)[C@@H](O)[C@@H]2O)[C@H](O)[C@@H](O)[C@@H]1O`, in that order: 5.32%, 5.12%, 10.9%, -9.69% and 6.02%.
Consider `c1ccc(CN2CCC[C@H]2c2nc(-c3ccnc(N4CCOCC4)c3)no2)nc1`, for which the activity change, negative = inhibition in assay [1] is -5.23%; in assay [2], -3.02%; in assay [3] it was -10%; in assay [4], -8.34%; in assay [5], -5.13%.
As for `COc1cc2ncnc(Nc3cccc(Cl)c3)c2cc1OC`, the activity change, negative = inhibition was -38.8% and -59.9% in assay [1]; -26.6% and -31.6% in assay [2]; -38.7% and -68.2% in assay [3]; -71% and -41.9% in assay [4]; -35.4% and -53.9% in assay [5].
As to `COC(=O)c1ncn2c1C(=O)N(Cc1ccc3c(c1)OCO3)C(C)(C(=O)NC1CCCC1)C2` (stereo not drawn), the activity change, negative = inhibition in assay [1] is 2.71%; in assay [2] it was 2.98%; in assay [3] it was -3.06%; in assay [4], 1.52%; in assay [5], -3.29%.
